Reference: PubChem BioAssay (NCATS)
Inconclusive means that the source gave no clear call. Such entries were picked first, then a sample of the others. For some of these results: Where the call is inconclusive, the potency comes from a doubtful curve fit. The source made the active and inactive calls. Unless noted, calls follow the shape of the dose curve; as a rule, active = well fitted curve in the direction sought with a large enough effect; inconclusive = small, poorly fitted or top-dose-only effect, or another doubt; inactive = no such curve, though single readings can be large; an effect the other way counts as inactive or inconclusive.

Columns and labels:
[1] = P-glycoprotein substrates identified in KB-8-5-11 adenocarcinoma cell line, qHTS therapeutic library screen (AID 1346987); conditions: activity change, negative = cytotoxicity: at 44.5 µM (top of the series); also: nearly all actives have a fitted effect of over 65% in size
In short: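 KB-8-5-11, a colchicine-selected P-gp-overexpressing KB-3-1 subline, was grown without colchicine for the assay. Cells were seeded at 500 cells/well, dosed in concentration-response and incubated 72 h at 37 degree C, 5% CO2. Viability was read by CellTiter-Glo luminescence.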

[2] = tested on: Zika virus NS2B-NS3 protease (unlinked complex); assay: Primary screen GU Rhodamine qHTS for Zika virus inhibitors: Unlinked NS2B-NS3 protease assay (AID 1347159); conditions: Recombinant ZIKV NS2B-NS3 protease, Rhodamine110 substrate fluorescence; series mostly up to 107 µM; also: nearly all actives have a fitted effect of over 60% in size; also: potency is read from the fitted curve at half-maximal effect
In short: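 A qHTS format was used, with compound concentrations ranging up to 114 microM. Each compound was preincubated with 25 nM NS2B-NS3 protease, and the substrate was then added at 1.5 microM. Curves were fitted with a 4-parameter Hill model.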

[3] = tested on: Zika virus NS2B-NS3 protease (linked construct); assay: Primary screen NINDS Rhodamine qHTS for Zika virus inhibitors (AID 1347160); also: nearly all actives have a fitted effect of over 55% in size; also: potency is read from the fitted curve at half-maximal effect
In short: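 Kinetic fluorescence (Ex 480 nm, Em 540 nm) over 15 min with 1.5 microM Rhodamine110 peptide and 25 nM linked protease.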

[4] = Primary qHTS for inhibitors of nuclear receptor binding SET domain protein 2 (NSD2) in an isogenic RCH-ACV NSD2 p.E1099K mutant (9B) (AID 1645876); conditions: activity change, negative = viability loss: at 44.9 µM (top of the series) unless noted; also: nearly all actives have a fitted effect of over 70% in size; also: potency is read from the fitted curve at half-maximal effect
[5] = Primary fluorescence-based thiol-reactive (MSTI) qHTS assay for identification of artifact compounds. (AID 1845221);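 also: potency is read from the fitted curve at half-maximal effect; thiol-reactive compounds lower the probe fluorescence signal; nearly all actives have a fitted effect of over 65% in size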
In short: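 A multi-concentration qHTS design tested compounds against 4 uM MSTI, pH 7.4 phosphate-buffered saline. Plates were protected from light for 1 h at room temperature before imaging fluorescence.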

[6] = Primary redox qHTS assay for identification of artifact compounds. (AID 1845223); also: potency is read from the fitted curve at half-maximal effect
In short: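 Amplex Red (25 uM) and HRP (250 mU/mL) in HBSS, with compounds for 15 min, then 250 uM DTT for 30 min, room temperature, dark. Fluorescence 525/598 nm read; normalized to DMSO and 10 uM DA3003; Hill fit.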

[7] = Primary qHTS for inhibitors of nuclear receptor binding SET domain protein 2 (NSD2) in an RCH-ACV wild type WT cells (2C) (AID 1645877); conditions: activity change, negative = cell killing: at 44.9 µM (top of the series) unless noted; also: nearly all actives have a fitted effect of over 70% in size; also: potency is read from the fitted curve at half-maximal effect
[8] = target: Cytochrome P450 2D6 (Homo sapiens) (UniProt P10635); assay: Cytochrome P450 family 2 subfamily D member 6 (CYP2D6) small molecule antagonists: luciferase biochemical (cell-free) qHTS assay (AID 1645840; active = well fitted curve in the direction sought with a large enough effect in the repeat runs; inconclusive = weak or mixed curves; inactive = no such curve, though single readings can be large; an effect the other way counts as inactive or inconclusive; also: potency is read from the fitted curve at half-maximal effect; nearly all actives have a fitted effect of over 55% in size)
In short: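 P450-Glo luminescent screen: recombinant CYP2D6 enzyme–proluciferin substrate mix preincubated with compound 10 min at room temperature, then NADPH regeneration added for 1 h at room temperature. Detection reagent added for 20 min; luciferin light read as relative luminescence units.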

[9] = target: Glutathione peroxidase 1 (Homo sapiens) (UniProt P07203); assay: Primary qHTS Assay for Inhibitors of Recombinant Selenoprotein Glutathione Peroxidase 1 (GPX1) (AID 1845191); also: potency is read from the fitted curve at half-maximal effect; nearly all actives have a fitted effect of over 65% in size
In short: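 Recombinant GPX1 (10 nM final) was preincubated with compound for 30 min at room temperature, then reacted with 1 mM GSH, 0.5 mM CHP, 0.5 mM NADPH and 100 nM glutathione reductase; NADPH fluorescence (340/450 nm) was read at 0 and 15 min.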
Tags tell the direction and shape of the fitted curve.

Sequence of UniProt P07203 (P07203 whole entry, looked up): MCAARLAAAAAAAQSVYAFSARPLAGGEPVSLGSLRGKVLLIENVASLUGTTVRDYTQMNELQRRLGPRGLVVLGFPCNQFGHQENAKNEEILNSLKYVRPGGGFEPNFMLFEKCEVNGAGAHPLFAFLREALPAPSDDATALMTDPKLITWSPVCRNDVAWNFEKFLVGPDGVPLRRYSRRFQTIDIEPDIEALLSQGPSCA
Sequence of UniProt P10635 (P10635 whole entry, looked up): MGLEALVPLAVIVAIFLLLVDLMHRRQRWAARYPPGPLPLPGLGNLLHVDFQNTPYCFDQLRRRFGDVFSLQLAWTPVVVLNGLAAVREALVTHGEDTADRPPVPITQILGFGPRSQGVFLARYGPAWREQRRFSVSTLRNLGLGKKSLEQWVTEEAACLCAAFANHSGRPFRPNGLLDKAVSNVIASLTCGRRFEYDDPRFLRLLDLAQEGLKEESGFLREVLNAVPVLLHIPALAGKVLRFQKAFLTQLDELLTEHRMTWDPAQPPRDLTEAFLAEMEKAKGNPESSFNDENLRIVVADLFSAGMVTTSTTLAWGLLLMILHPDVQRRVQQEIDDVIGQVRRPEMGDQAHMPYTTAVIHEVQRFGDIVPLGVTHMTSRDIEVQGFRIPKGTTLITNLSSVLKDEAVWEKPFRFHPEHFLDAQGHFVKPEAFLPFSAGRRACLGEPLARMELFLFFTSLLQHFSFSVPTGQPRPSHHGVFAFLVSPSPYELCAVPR

For `COCc1c(O)c(C(=O)O)c(C)c2c1OC(=O)c1c(C)cc(O)c(CO)c1O2`, the Potency [1] was “inactive”, the Potency [2] was active: 28.2 µM and the Potency [3] was inconclusive: 11.2 µM [inhibitor, partial curve, poor fit]. The Potency [4] was “inactive”, the Potency [5] was active: 5.21 µM and the Potency [6] was inconclusive: 23.3 µM [activator, single point].
For `O=C(O)c1cc(O[C@@H]2O[C@H](CO[C@@H]3OC[C@@H](O)[C@H](O)[C@H]3O)[C@@H](O)[C@H](O)[C@H]2O)c2ccccc2c1O`, the Potency [1] was “inactive”, the Potency [2] was “inactive” and the Potency [3] was inconclusive: 2.82 µM [inhibitor, partial curve, poor fit]. The Potency [4] was “inactive”, the Potency [5] was active: 3.67 µM and the Potency [6] was inconclusive: 6.53 µM [activator, partial curve].
For `C=C1CCC2[C@@](C)(C=O)CCC[C@]2(C)[C@H]1CC/C(C)=C/CO` (stereo not given in full), the Potency [1] was “inactive”, the Potency [2] was inconclusive: 50.1 µM [inhibitor, partial curve] and the Potency [3] was “inactive”. The Potency [4] was inconclusive: 29 µM [inhibitor, single point], the Potency [7] was inconclusive: 29 µM [inhibitor, single point] and the Potency [5] was inconclusive: 37.7 µM [inhibitor, single point]. The Potency [6] was inconclusive: 37.7 µM [activator, partial curve, poor fit].
With `Cc1cc(C)nc(NS(=O)(=O)c2ccc(NC(=S)NC(=O)COc3ccc(Br)cc3Cl)cc2)n1` the Potency [1] was “inactive”, the Potency [2] was active: 7.08 µM and the Potency [3] was active: 15.8 µM. For the same compound, the Potency [8] was inconclusive: 19 µM [inhibitor, partial curve], the Potency [7] was “inactive” and the Potency [9] was inconclusive: 12.8 µM [inhibitor, partial curve].
